Screen size: about 360,000 compounds; about 25,000 (6.9%) were called active. Inconclusive results, whose numbers are uncertain, are shown with a selection of clear calls. Calls follow the shape of the dose curve; as a rule, active = well fitted inhibition curve with a large enough effect; inconclusive = small, poorly fitted or top-dose-only effect; inactive = flat fitted curve, though single readings scatter. Potencies beside an inconclusive call are fits to weak or partial responses and may not hold up.
The compounds below were run against Luciferin 4-monooxygenase (Photinus pyralis) (UniProt P08659) (assay: qHTS profiling assay for firefly luciferase inhibitor/activator using purifed enzyme and Km concentrations of substrates (counterscreen for miR-21 project)). Conditions: purified FLuc, luminescence inhibition; series mostly up to 57.5 µM.
Sequence of UniProt P08659 (P08659 whole entry, looked up): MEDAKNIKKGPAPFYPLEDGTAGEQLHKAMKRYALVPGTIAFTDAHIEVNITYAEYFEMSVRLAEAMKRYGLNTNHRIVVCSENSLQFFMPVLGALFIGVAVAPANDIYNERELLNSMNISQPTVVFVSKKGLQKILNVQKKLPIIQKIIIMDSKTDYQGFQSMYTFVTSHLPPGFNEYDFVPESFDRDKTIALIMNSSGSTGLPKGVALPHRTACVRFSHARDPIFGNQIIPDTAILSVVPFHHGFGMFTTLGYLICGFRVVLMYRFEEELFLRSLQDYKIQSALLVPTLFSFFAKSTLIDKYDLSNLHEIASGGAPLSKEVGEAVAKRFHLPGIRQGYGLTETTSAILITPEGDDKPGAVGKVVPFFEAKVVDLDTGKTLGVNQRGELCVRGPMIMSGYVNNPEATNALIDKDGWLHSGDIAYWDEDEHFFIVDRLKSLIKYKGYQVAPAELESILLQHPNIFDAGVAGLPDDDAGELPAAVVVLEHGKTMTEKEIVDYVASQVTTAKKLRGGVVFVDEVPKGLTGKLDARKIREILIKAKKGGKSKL
Procedure, shortened: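 Purified P. pyralis luciferase (10nM final) with 10uM D-luciferin and 10uM ATP (Km levels) in 50mM Tris acetate pH 7.5, 10mM Mg acetate, 0.01% Tween-20, 0.05% BSA; qHTS 6-point titration, ~60 µM downward; luminescence read.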
In the case of CCOc1ccccc1NC(=O)CSc1ncc(S(=O)(=O)c2ccc(C(C)(C)C)cc2)c(=O)[nH]1, the Potency is reported as inconclusive: 10.7 µM [inhibitor, partial curve]. O=C(Nc1nncs1)C1COc2ccccc2O1 (stereo not given) was tested, and the Potency was inconclusive: 23.9 µM [inhibitor, partial curve, poor fit]. For COC(=O)c1ccc(-n2cnc3ccccc32)nc1, the Potency was inconclusive: 16.9 µM [inhibitor, partial curve]. In the case of CCc1nnc(NC(=O)c2cccc(C(=O)Nc3nnc(CC)s3)n2)s1, the Potency is reported as active: 19 µM. For CC1(CC(=O)N/N=C/c2ccc(-c3ccc(C(=O)O)cc3)o2)OCCO1, the Potency was inconclusive: 37.9 µM [inhibitor, partial curve, poor fit]. For CCCn1c2ccccc2c2cnn(CC(=O)NCCc3ccc(OCC)c(OCC)c3)c(=O)c21, the Potency was inconclusive: 6.75 µM [inhibitor, partial curve, poor fit]. In the case of N#Cc1c(Cl)nsc1NN, the Potency is reported as “inactive”. In the case of COC(=O)c1ccc(NC(=O)c2ccc3c(c2)NC(=O)C2CCCN32)cc1 (stereo not given), the Potency is reported as inconclusive: 21.3 µM [inhibitor, partial curve, poor fit]. In the case of Cc1nn(C)c(C(=O)N/N=C/c2cccc3ccccc23)c1Cl, the Potency is reported as inconclusive: 6.75 µM [inhibitor, full curve]. Cc1ccc(-c2ccc(/C=N/N3C(=O)C4C5C=CC(CC5)C4C3=O)o2)c([N+](=O)[O-])c1 (stereo not given) was tested, and the Potency was inconclusive: 21.3 µM [inhibitor, partial curve]. In the case of COc1ccc(-c2ccc(SCC(=O)NC3CCCC3)nn2)cc1OC, the Potency is reported as active: 15.1 µM. For Cn1ccc(NC(=O)Nc2ccc(Cl)cc2Cl)n1, the Potency was active: 15.1 µM. For COc1cccc(C(=O)Nc2ccc(NC(=O)C3CC=CCC3C(=O)O)cc2)c1 (stereo not given), the Potency was inconclusive: 21.3 µM [inhibitor, single point]. Cc1cc(C)c2c(=O)n(CC(=O)NCCCN3CCOCC3)sc2n1 was tested, and the Potency was inconclusive: 8.49 µM [inhibitor, partial curve]. In the case of COC(=O)CNC(=O)c1cc(-c2ccncc2)nc2ccc(C)cc12, the Potency is reported as “inactive”. In the case of O=C(Nc1nc2c(ccc3ccccc32)s1)c1ccco1, the Potency is reported as active: 13.5 µM. In the case of Cc1ccc2nc(/C(C#N)=C/c3ccccc3C(=O)O)[nH]c2c1, the Potency is reported as inconclusive: 37.9 µM [inhibitor, partial curve, poor fit]. For CC(=O)Nc1cccc(NC(=O)Nc2ccc(C)c(Cl)c2)c1, the Potency was active: 2.13 µM. With COc1ccc(C2=NC(c3ccccc3)CO2)cc1 (stereo not given) the Potency was active: 1.51 µM. For O=C1C=CC(=O)N1c1ccc(OC(F)F)cc1, the Potency was inconclusive: 13.5 µM [inhibitor, partial curve].

From PubChem BioAssay AID588342 (National Center for Advancing Translational Sciences (NCATS), 2011)
Also: nearly all actives have a fitted effect of over 55% in size.
Potency is read from the fitted curve at half-maximal effect; tags tell the direction and shape of the fitted curve.
